The list shows a part of the results. At the low end of the ranking, values are background and their order means little.

The assay has as its target T1, GST-Rok-C97-191 (UniProt O34857).
T1 sequence: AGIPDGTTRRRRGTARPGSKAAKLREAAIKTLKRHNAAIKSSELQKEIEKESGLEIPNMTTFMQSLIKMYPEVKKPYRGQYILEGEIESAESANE
As to the kind of experiment: protein binding microarray.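 Further: rank score from −0.5 (least bound) to 0.5 (best bound).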 Particulars: Rok is a gene silencer of Bacillus subtilis; high values mean tight binding; most listed sequences are background and not binding sites; double strand, one strand shown.
In the case of CAGCTGGA, the binding signal was -0.139 E-score. The sequence CACTAATG had a binding signal of 0.134 E-score. The value for AATCTTGG was 0.0215 E-score. The value for ATTATAGA was 0.318 E-score; that for AGGCTTTA was -0.0666 E-score; that for ACAAGTGA was 0.0744 E-score.

Take CAGTAATA: the binding signal was determined as 0.29 E-score. As to TTCCTCAA, the binding signal worked out at 0.041 E-score.

The sequence ATCTAGGA gave a binding signal of 0.0645 E-score. In the case of GGGTGGGA, the binding signal was -0.0405 E-score. ACTACAAG registered a binding signal of 0.137 E-score. The sequence ATCCTGTA gave a binding signal of 0.176 E-score. Take AGTAGTCC: the binding signal stood at 0.00719 E-score.

GGTATATA: the binding signal was found to be 0.406 E-score. The same measure for ATCACTAA: 0.0896 E-score. For the sequence CATTCGCA, the binding signal was -0.197 E-score. As for TAATTTAA, the binding signal amounted to 0.396 E-score. The same measure for AATCAATC: -0.079 E-score. For CCCAGACC, the binding signal was -0.31 E-score. Sequence GCTTATAA had a binding signal of 0.101 E-score. As for ATTTTGCC, the binding signal is 0.0574 E-score. Consider TATGGACA, for which the binding signal amounted to 0.042 E-score. With GTTTAACA, the binding signal is 0.0582 E-score.

As to AGCCCGCG, the binding signal was -0.35 E-score. As to GTACCAGA, the binding signal amounted to 0.0231 E-score.

CAGCACAG displayed a binding signal of -0.063 E-score. In turn, CCAGAGCC had a binding signal of -0.226 E-score. Sequence AAGGATTG returned a binding signal of -0.07 E-score. The same measure for AGCACAAG: -0.0106 E-score. The same measure for AATGCAGC: -0.146 E-score; for AAACATGA: 0.102 E-score.

Sequence ATCCTTAG gave a binding signal of 0.108 E-score.

CGTAAGGC: the binding signal is -0.192 E-score.

In turn, CCTGGCAA returned a binding signal of -0.109 E-score.

The sequence CAGTGCAA had a binding signal of -0.132 E-score. AAGTGCCA registered a binding signal of -0.136 E-score. In turn, AGTCCCAG gave a binding signal of -0.171 E-score. With CCACGCGG, the binding signal is -0.289 E-score. AGCGGCGC: the binding signal is -0.343 E-score. In turn, GGGGACAC yielded a binding signal of -0.14 E-score.

In the case of CTCCTTAC, the binding signal was -0.067 E-score. As for ACCAGCGG, the binding signal is -0.105 E-score. With CCTGGGCA, the binding signal was -0.246 E-score. Turning to AGGACATC, the binding signal is -0.218 E-score. The value for AGAGCTAA was 0.148 E-score.

Take TGGCGTAA: the binding signal was 0.0802 E-score. Consider ATGGCTCA, for which the binding signal is -0.061 E-score. In turn, AGACGAAT displayed a binding signal of -0.195 E-score. TAATCCCA showed a binding signal of 0.0537 E-score. In turn, GAGGCGCA showed a binding signal of -0.133 E-score. GCGTGTTA displayed a binding signal of -0.0342 E-score. The value for GCTAGGAC was -0.135 E-score; that for AAACTCGC was -0.018 E-score; that for CGTAGGTA was 0.336 E-score.

AAGGGCAG: the binding signal is -0.195 E-score. As to CAGTTGAA, the binding signal is 0.0858 E-score. The sequence ATGTCCGC yielded a binding signal of -0.0634 E-score. In turn, CCAGATGC registered a binding signal of -0.278 E-score. ACGTTACG returned a binding signal of -0.0241 E-score. Take GCTCGTCA: the binding signal was -0.151 E-score.

In the case of ACCGGAAG, the binding signal was -0.166 E-score. GCGCGTGA: the binding signal is -0.293 E-score. Turning to ATGGGCTA, the binding signal was -0.0101 E-score. With TCATATCA, the binding signal amounted to 0.0493 E-score.

With CAGATGGG, the binding signal is -0.0872 E-score. ACCCCGAT showed a binding signal of -0.108 E-score. The value for GGCCTGCA was -0.18 E-score. On to ACGAAGTG, for which the binding signal stood at 0.057 E-score. As to ATATCCTG, the binding signal was 0.00586 E-score. The sequence AAATCATT gave a binding signal of 0.17 E-score. Turning to CCGGTGGC, the binding signal was -0.144 E-score. The value for ACGAACCG was -0.0905 E-score. Consider AACAACCG, for which the binding signal is -0.0775 E-score. GAATAACA registered a binding signal of -0.0158 E-score. In turn, CGGCTCAG showed a binding signal of -0.157 E-score. With CAGTACAC, the binding signal turned out to be 0.00755 E-score.

Sequence AGTGCGAA gave a binding signal of -0.0952 E-score. With ACGGTGTC, the binding signal is -0.179 E-score.

Consider GTAAGGGA, for which the binding signal was 0.0551 E-score. CCTGTTTA had a binding signal of -0.0563 E-score. The sequence ACAATCGA came in with a binding signal of 0.0259 E-score. Regarding CTTCATAA, the binding signal was 0.0906 E-score. Turning to GATCTCGA, the binding signal was determined as 0.0929 E-score. ACCAAAGC returned a binding signal of -0.0869 E-score. ATCGGCTA: the binding signal is -0.0669 E-score. In turn, ATACGACA came in with a binding signal of -0.0485 E-score.

Take TATTTTAA: the binding signal came to 0.309 E-score. On to AAAGGGGT, for which the binding signal was -0.157 E-score. GGCCTTCA had a binding signal of -0.25 E-score. Sequence ACTGAGAA returned a binding signal of -0.0376 E-score. The value for AAGCAACT was 0.179 E-score; that for AGCAATAA was -0.108 E-score; that for GATCTCCC was -0.165 E-score.

CCTGGCGC had a binding signal of -0.266 E-score. The same measure for ACCGTGAT: 0.034 E-score; for ATGTTTGA: 0.123 E-score; for ACTCAATC: 0.0834 E-score.

On to AACGAGTC, for which the binding signal is -0.0998 E-score.

With ATCATCGC, the binding signal is -0.0163 E-score. The value for GATAGGCC was 0.00256 E-score; that for AATACTGG was 0.136 E-score.

In turn, CACAGAGA yielded a binding signal of -0.0959 E-score. In turn, TAAGTGTA gave a binding signal of 0.186 E-score. With CCAGCAGA, the binding signal was -0.157 E-score. The sequence CAATATTA registered a binding signal of 0.204 E-score. CTGCAACA: the binding signal is 0.0545 E-score.

The sequence AGCAGAAA showed a binding signal of 0.146 E-score.

As for CGAGACGA, the binding signal is -0.0929 E-score. In turn, AAGCGAGT had a binding signal of -0.052 E-score. The sequence ATCACTAC displayed a binding signal of 0.159 E-score.

Turning to GGTAAACC, the binding signal was -0.0735 E-score. In turn, AGGCGCAA registered a binding signal of -0.00123 E-score.

With CTTCTAAC, the binding signal stood at 0.00584 E-score. Sequence ATAACCTC returned a binding signal of 0.0745 E-score. Sequence ACCATTTG yielded a binding signal of 0.000265 E-score.

As to ATGCTCAG, the binding signal was -0.198 E-score. The value for GTCCCGAC was -0.0777 E-score; that for CATCCACG was -0.13 E-score; that for ATGGCACA was -0.159 E-score. Consider AGTCGTAG, for which the binding signal turned out to be 0.0976 E-score. The sequence CTCCTTGC gave a binding signal of -0.184 E-score.

CGCATCCC returned a binding signal of -0.335 E-score. For GTACATCA, the binding signal worked out at 0.177 E-score. With TCACCGCA, the binding signal is -0.176 E-score.

For the sequence ATATGTAA, the binding signal turned out to be 0.28 E-score. The sequence AGATAGTG gave a binding signal of 0.174 E-score.

ATAGCTGG: the binding signal amounted to 0.0967 E-score.

GCAGATTA yielded a binding signal of 0.028 E-score. The value for CCCGGTTA was -0.0284 E-score; that for AGGTATGC was 0.0845 E-score; that for GTTTTAAA was 0.047 E-score.

In the case of CGAGCGAA, the binding signal was -0.106 E-score. AAGCACGT showed a binding signal of 0.017 E-score. On to ATTAGCTA, for which the binding signal stood at 0.318 E-score. As to CAGCGCTA, the binding signal was -0.0185 E-score. In turn, ACTTATAA came in with a binding signal of 0.338 E-score. The same measure for CCGTTTGC: 0.0204 E-score; for ATTCTCCG: 0.247 E-score; for TATTTCAA: 0.177 E-score.

In turn, GTGATGCA yielded a binding signal of -0.132 E-score.

Sequence CTCTGGCA returned a binding signal of -0.125 E-score.

As for ATCGACAT, the binding signal was 0.0133 E-score. Take CATCTAGA: the binding signal came to 0.0183 E-score. The value for CAATCGAC was -0.0898 E-score; that for GACACACA was 0.00916 E-score; that for CCAGCCAC was -0.275 E-score.

ACGAGCCC: the binding signal was -0.166 E-score. ATTCGCAC showed a binding signal of -0.058 E-score.

With ATATCACC, the binding signal amounted to 0.121 E-score.

TCACTTAA registered a binding signal of 0.0956 E-score. With CCGATTTC, the binding signal is -0.243 E-score.

Take ATCGATGG: the binding signal was -0.028 E-score. GAAGGAAC: the binding signal is -0.108 E-score. AGATCTAT displayed a binding signal of 0.301 E-score. Take CAGTACGG: the binding signal was -0.0207 E-score. The same measure for AGTAGCTA: 0.37 E-score. In the case of ATGTTCAA, the binding signal is -0.0211 E-score. The sequence ATAGATCA showed a binding signal of 0.217 E-score.

The sequence ATTAGGGC showed a binding signal of -0.073 E-score. ATGTATAA registered a binding signal of 0.364 E-score. ACATCCAT displayed a binding signal of 0.163 E-score. CCTACGTA: the binding signal was -0.0162 E-score.

GATCATAC displayed a binding signal of 0.212 E-score. ACGCATTG: the binding signal is -0.00648 E-score. The same measure for TCTCAGAA: -0.107 E-score; for GGGAACTA: 0.0986 E-score. ACACTACC yielded a binding signal of -0.0628 E-score. The value for ATGTGGCC was -0.0945 E-score. CACTGCTG had a binding signal of -0.0892 E-score. The same measure for CAATGCCG: -0.141 E-score; for GATCGGAC: -0.119 E-score. For the sequence ACCCTCTC, the binding signal is -0.294 E-score.

The values are drawn from publication PMC6212790.
